Article PMC4336329 (PLoS ONE, 2015)
Out of some 310,000 compounds screened, about 14,000 (4.5%) showed an effect of 50% or more. The effect is printed as a negative number. Some of the results follow.

target: human ether-à-go-go-related gene (hERG) potassium channel (human, UniProt Q12809); assay: primary screen, population patch clamp on CHO cells stably expressing hERG
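Note: peak tail current of the secondary pulse compared with the same well before compound.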

human ether-à-go-go-related gene (hERG) potassium channel, sequence (Q12809 whole entry, looked up): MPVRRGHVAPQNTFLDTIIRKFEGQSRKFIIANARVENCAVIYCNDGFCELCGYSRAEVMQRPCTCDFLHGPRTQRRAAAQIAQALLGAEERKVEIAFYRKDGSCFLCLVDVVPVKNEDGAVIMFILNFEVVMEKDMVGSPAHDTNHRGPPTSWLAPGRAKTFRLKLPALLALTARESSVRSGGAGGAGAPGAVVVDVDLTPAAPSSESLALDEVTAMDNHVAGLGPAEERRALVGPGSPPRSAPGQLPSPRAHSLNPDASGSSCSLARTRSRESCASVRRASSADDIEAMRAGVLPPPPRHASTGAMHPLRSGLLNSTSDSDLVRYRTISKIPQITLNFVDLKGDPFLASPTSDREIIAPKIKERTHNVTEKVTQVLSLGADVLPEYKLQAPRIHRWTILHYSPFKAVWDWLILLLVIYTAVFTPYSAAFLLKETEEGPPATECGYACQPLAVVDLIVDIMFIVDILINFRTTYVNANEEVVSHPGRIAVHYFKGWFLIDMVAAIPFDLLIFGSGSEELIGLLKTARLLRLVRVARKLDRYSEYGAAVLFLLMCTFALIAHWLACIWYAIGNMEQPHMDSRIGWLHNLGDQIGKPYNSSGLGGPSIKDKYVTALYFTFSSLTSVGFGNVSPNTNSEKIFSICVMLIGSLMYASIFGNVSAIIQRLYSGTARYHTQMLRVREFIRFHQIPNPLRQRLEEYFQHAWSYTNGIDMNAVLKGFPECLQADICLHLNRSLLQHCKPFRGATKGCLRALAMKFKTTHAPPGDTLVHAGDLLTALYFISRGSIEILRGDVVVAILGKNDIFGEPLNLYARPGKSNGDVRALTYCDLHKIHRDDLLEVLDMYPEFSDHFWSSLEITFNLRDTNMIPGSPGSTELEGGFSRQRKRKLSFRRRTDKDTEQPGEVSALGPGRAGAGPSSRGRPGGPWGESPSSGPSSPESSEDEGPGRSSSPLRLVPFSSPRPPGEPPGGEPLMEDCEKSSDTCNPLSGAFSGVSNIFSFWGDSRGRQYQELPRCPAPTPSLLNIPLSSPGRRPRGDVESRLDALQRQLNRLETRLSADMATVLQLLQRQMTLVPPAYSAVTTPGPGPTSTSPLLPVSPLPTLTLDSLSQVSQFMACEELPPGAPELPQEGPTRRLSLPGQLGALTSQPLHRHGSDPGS

| Structure (SMILES) | hERG current change (%, negative = inhibition) at 10uM |
| --- | --- |
| COc1ccc(C(=O)N/N=C/c2ccc(OC)c(CN3CCc4cc(OC)c(OC)cc4C3C)c2)cc1 (stereo not shown) | -76% |
| N#Cc1c(-c2ccccc2)nc2n(c1=O)CCS2 | 5.34% |
| Cc1cc2c(c(=O)o1)C(C13C=CC(CC1)C3)C(C#N)=C(N)O2 (stereo not shown) | -2.83% |
| CCCCn1nnnc1SCC(=O)N1CCN(C(=O)c2ccco2)CC1 | -48.5% |
| Cc1[nH]c2ccc(S(N)(=O)=O)cc2c1C | 12.2% |
| Cc1cc([N+](=O)[O-])ccc1Nc1nc2ccccc2n2cnnc12 | 4.48% |
| CS(=O)(=O)/C(C#N)=C/c1c(-c2ccccc2)nc2n1CCS2 | 1.34% |
| O=C(CCn1c(=O)oc2ccccc21)NCCN1CCc2ccccc2C1 | -31.5% |
| Cc1ccc(S(=O)(=O)NNC(=S)Nc2ccccc2)cc1 | 3.05% |
| CN(C)c1ccc(C(CNC(=O)c2ccco2)N2CCCC2)cc1 (stereo not shown) | 10% |
| COc1ccc(S(=O)(=O)N(CC(=O)NCC2CCCO2)c2ccccc2)cc1OC (stereo not shown) | 8.74% |
| CCOc1ccccc1C(=O)N(C)Cc1cc2ccccc2[nH]c1=O | 5.8% |
| CCCCn1c(=O)[nH]c(=O)c2c1nc(-c1ccc(OCCC)c(OCC)c1)n2CCOC | -22.6% |
| O=c1nc(/C=C/c2cccn2-c2ccc([N+](=O)[O-])cc2)cc(C(F)(F)F)[nH]1 | 6.29% |
| O=C(O)COCc1nc2ccccc2s1 | -7.92% |
| CCOc1ccc(NC(=O)CN(c2ccc(OC)cc2)S(C)(=O)=O)cc1 | 2.36% |
| COc1ccc(NC(=O)C2=CCN(S(=O)(=O)c3ccccc3)CC2)cc1OC | -32.6% |
| CCC(c1nnnn1C1CCCC1)N1CCC(C(N)=O)CC1 (stereo not shown) | 17.7% |
| COc1ccc(-c2nc(C#N)c(NCc3ccccc3Cl)o2)cc1OC | 5.43% |
| O=C1[C@@H]2CSCN2C(=O)CN1Cc1ccc(F)cc1 | 6.06% |
| Cc1ccc(NS(=O)(=O)c2ccc3c(c2)c(=O)n(C)c(=O)n3C)cc1F | -15.5% |
| NC(C(=O)O)C1CC(Cl)=NO1 (stereo not shown) | 7.96% |

| Structure (SMILES) | hERG current change (%, negative = inhibition) at 10uM |
| --- | --- |
| CCN(CC)C(=O)Cn1cc(C(=O)C(=O)NCCc2ccc(S(N)(=O)=O)cc2)c2ccccc21 | -7.14% |
| COc1ccc(C(CNC(=O)COc2ccccc2C#N)N2CCOCC2)cc1 (stereo not shown) | -1.14% |
| C=COCCNC(=S)N1CCOCCOCCN(C(=S)NCCOC=C)CCOCCOCC1 | 10.4% |
| N#Cc1c(-c2ccc(Cl)cc2Cl)nc2n(c1=O)CCS2 | -7.97% |
| COc1cc(C2=NOC(C(=O)NCc3cccnc3)C2)cc(OC)c1OC (stereo not shown) | 6.74% |
| CCOC(=O)c1c(C)[nH]c(C)c1S(=O)(=O)N(C)CC(=O)Nc1ccccc1 | -0.28% |
| N#CCC(=O)N/N=C/c1c(-c2ccccc2)n(-c2ccccc2)c2ccccc12 | -1.17% |
| C=CCN1C(=O)C(O)(CC(=O)c2ccco2)c2cc(Br)ccc21 (stereo not shown) | 11.2% |
| O=C1CC(N2CCN(c3ccccn3)CC2)C(=O)N1c1ccc(Cl)cc1 (stereo not shown) | 4.46% |
| COc1ccc(CCNC(=O)CCn2c(=O)[nH]c3cc(OC)c(OC)cc3c2=O)cc1OC | -24.4% |
| CCOC(=O)C1(CCOc2ccccc2)CCN(Cc2cc(OC)ccc2OC)CC1 | -73.2% |
| O=C(OCC(=O)N1CCc2ccccc2C1)c1ccc(OC(F)F)cc1 | -80.2% |
| O=C(NCc1ccc(F)cc1)C1CCN(S(=O)(=O)c2cccnc2)CC1 | -1.49% |
| COc1ccc(C(C)NC(=O)c2ccccc2Br)cc1OC (stereo not shown) | 10% |
| O=c1cc(O)nc(SCc2ccccc2)n1-c1ccccc1 | 8.64% |
| Cc1cccc(N(CC(=O)NC(C)(C)C)C(=O)CCC(=O)Nc2nccs2)c1 | -1.32% |
| COc1ccc(C(=O)Nc2nc(-c3ccccc3)c(C(C)=O)s2)c(OC)c1 | 31.2% |
| CN(CCc1ccccn1)C(=O)CCC1CCCN(C(=O)c2ccccn2)C1 (stereo not shown) | 21.8% |
| COc1ccc(Cc2nnc(SCC(=O)N3CCCC(C)C3)o2)cc1 (stereo not shown) | 14.8% |
| Cc1c(NC(=O)C2C3C=CC(C3)C2C(=O)O)c(=O)n(-c2ccccc2)n1C (stereo not shown) | 14.2% |
| COCCn1c(=O)[nH]c2cc(C(=O)OC)ccc2c1=O | 7.96% |
| Cc1cc2c(cc1C)C(c1cccc([N+](=O)[O-])c1)CC(=O)N2 (stereo not shown) | 5.01% |

| Structure (SMILES) | hERG current change (%, negative = inhibition) at 10uM |
| --- | --- |
| CC1(C)CC(O)C(C)(C)N1O (stereo not shown) | 3.9% |
| CC1CCN(C(=O)COC(=O)c2cccc(S(=O)(=O)N(C)c3ccccc3)c2)CC1 | -49.8% |
| Cc1ccc(NC(=O)CN2C(=O)c3ccccc3C2=O)c(C)c1 | -3.51% |
| Cc1ccccc1Cn1nnc(-c2ccc(F)cc2)n1 | 15% |
| Cc1n[nH]c(C)c1S(=O)(=O)N1CCCC(C(=O)NCc2ccccc2Cl)C1 (stereo not shown) | -4.85% |
| CC(C)C(C(=O)NC1CCCC1)N(CC1CCCO1)C(=O)CNS(=O)(=O)c1ccc(F)cc1 (stereo not shown) | -6.96% |
| O=C1C(=O)N(CCN2CCOCC2)C(c2ccc(Cl)cc2)/C1=C(/O)c1ccc(S(=O)(=O)N2CCOCC2)cc1 (stereo not shown) | 23% |
| CC1(C)Cc2c(c(N3CCCC3)nc3sc4c(N5CCN(CCO)CC5)ncnc4c23)CO1 | -11.1% |
| Cc1c(C(=O)Nc2c(N)nc(SCC(=O)NCC3CCCO3)[nH]c2=O)cccc1[N+](=O)[O-] (stereo not shown) | 15.9% |
| CCNc1c(NS(=O)(=O)c2ccc([N+](=O)[O-])cc2)c(=O)oc2ccccc12 | 20.5% |
| CCOc1cccc(-c2nnc3sc(C4CCCCC4)nn23)c1 | -36.3% |
| Cc1cccc(NC(=S)N(CCN(C)C)C(C)c2ccccn2)c1 (stereo not shown) | -7.64% |
| CCCN(N=Nc1cccc([N+](=O)[O-])c1)c1cccc([N+](=O)[O-])c1 | 3.14% |
| CCOc1ncccc1C(=O)OCC(=O)NCCc1ccc(OC)cc1 | -8.44% |
| CS(=O)(=O)N(CCc1ccccc1)CC(=O)NCc1cccnc1 | -5.61% |
| COc1cccc(Oc2ccc3nnc(C(F)(F)F)n3n2)c1 | 5.03% |
| Cc1ccc(S(=O)(=O)N2CCCC2)s1 | -20.7% |
| CC(=O)Cc1nsc(NC(=O)C2Cc3ccccc3C(=O)O2)n1 (stereo not shown) | 21.7% |
| O=C(NCc1ccccc1Cl)C1CCN(c2ncnc3c2nc2n3CCCCC2)CC1 | -30.9% |
| CN(Cc1nc(-c2ccccc2)no1)C1CCOCC1 | 5.53% |
| Cn1c(CCNC(=O)c2ccccc2)nc2cc(NC(=O)c3ccco3)ccc21 | -15.2% |
| CC(=O)Nc1ccc(CN2CCCCCCC2)cc1 | -4.11% |

| Structure (SMILES) | hERG current change (%, negative = inhibition) at 10uM |
| --- | --- |
| O=C(/C=C/c1ccccc1[N+](=O)[O-])NNC(=O)c1ccncc1 | -7.86% |
| Nc1ncccc1C(=O)OCC(=O)NC1CCCCCC1 | 1.63% |
| Cc1noc(C)c1COc1cccc(C(=O)NCCc2c[nH]c3ccccc23)c1 | -6.56% |
| Cc1ccc(/C=C2/SC(=S)N(CCC(=O)N3CCN(C)CC3)C2=O)cc1 | 8.77% |
| Cc1ccc(C)c(S(=O)(=O)N2CCN(C(=O)CSC(=S)N3CCCC3)CC2)c1 | -2.49% |
| CCN(CC)S(=O)(=O)c1ccc(OC)c(NC(=O)Cc2cccs2)c1 | -36.6% |
| O=C(Nc1ccccc1Br)C(=O)N1CCCC1 | 3.44% |
| COc1cc(/C=C/C(=O)O)cc(S(=O)(=O)Nc2ccccc2C(=O)NCCc2ccccc2)c1OC | 21.7% |
| O=C(Nc1ccc2c(c1)C(=O)OC2)Nc1cccc2ccccc12 | 13.1% |
| Cc1onc(-c2c(F)cccc2Cl)c1C(=O)NNC(=O)C1CCN(Cc2ccccc2)CC1 | -3.79% |
| CCn1c(SCC(=O)Nc2nccs2)nnc1-c1cccnc1 | 6.01% |
| Cc1ccccc1Cn1nnc(C(=O)Nc2ccc3c(c2)OCCO3)c1N | 5.04% |
| C=CCOC(=O)C1=C(C)NC(=O)NC1c1ccc(Cl)cc1 (stereo not shown) | -7.32% |
| O=C(COc1ccccc1Cl)Nc1ccc2oc(=O)ccc2c1 | 16.8% |
| Cc1c(OCC(=O)NCC(O)c2ccccc2)ccc2c3c(c(=O)oc12)CCCC3 (stereo not shown) | -0.779% |
| Cc1noc(N)c1C(=O)Nc1ccc(F)c(Cl)c1 | -2.34% |
| O=C1CN(C(=O)COC(=O)c2oc3ccccc3c2COc2ccccc2)c2ccccc2N1 | -4.41% |
| COc1ccc(CN2CCn3ncc(C(=O)Nc4ccc(Cl)cc4Cl)c3C2=O)cc1 | -3.62% |
| O=C(Oc1cccc([N+](=O)[O-])c1)c1cc(-c2ccccc2)nc2ccccc12 | 12% |
| CC(Sc1nnc(C2CC2)n1C1CC1)C(=O)Nc1ccccc1C#N (stereo not shown) | -10% |
| COCCN(C(=O)CCCC(=O)Nc1ccccn1)C(C(=O)NC1CCCC1)c1ccc(C)cc1 (stereo not shown) | -5.66% |
| CCN(CC)S(=O)(=O)c1ccc(N2Cc3ccccc3C2=N)cc1 | -40.5% |
